Article PMC12820563, “FoxP3 forms a head-to-head dimer in vivo and stabilizes its multimerization on adjacent microsatellites”
The other results are listed elsewhere or left out.

The sequences below were run against T1, MBP-FoxP1dN (Mus musculus, UniProt P58462 326-579) (assay: PD-seq (MBP pull-down with sequencing); 20 mM Tris-HCl pH 7.5, 100 mM NaCl, 1.5 mM MgCl2, 0.4 uM protein, 0.1 uM dsDNA library, 30 min, room temperature, amylose pull-down; high values mean tight binding). Conditions: protein: recombinant; tags: His6-MBP; chain copies: 2; dsDNA, one strand shown.
T1 sequence: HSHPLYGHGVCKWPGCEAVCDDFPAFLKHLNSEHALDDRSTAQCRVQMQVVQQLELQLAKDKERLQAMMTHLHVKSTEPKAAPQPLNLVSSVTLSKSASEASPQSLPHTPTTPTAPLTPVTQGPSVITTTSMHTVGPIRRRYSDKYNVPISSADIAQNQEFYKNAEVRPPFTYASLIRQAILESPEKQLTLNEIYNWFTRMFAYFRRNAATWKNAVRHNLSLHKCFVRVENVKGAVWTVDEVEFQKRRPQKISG
In short: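 Binding is reads-per-million enrichment of pull-down over input, with replicates pooled. It comes from 30 min room-temperature incubation in Tris pH 7.5 buffer with NaCl and MgCl2 of 0.4 µM His6-MBP-tagged, N-terminally truncated mouse FoxP3 or FoxP1 fragment from E. coli with 0.1 µM Klenow-filled degenerate double-stranded DNA library, followed by amylose resin capture, three washes and Illumina sequencing of the released DNA.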

Q: With “GATGATTGTTCTCCCAGCTGATGAATTGTCCCTTTCGAGTAAACAAATTTTCCTAATCTTTCTGTTCAAGCGCCATCTAC” as the sequence, how does the binding signal read?
A: Its binding signal is 1.01 RPM ratio (pull-down/input).

Q: For “GATGATTGTTCTCCCAGCTGATGAATTAGCAATATCGAGTAAACAAATTTTCCTAATCTTTCTGTTCAAGCGCCATCTAC”, which binding signal is on record?
A: Its binding signal is 1.19 RPM ratio (pull-down/input).

Q: Which binding signal does the source give for “GATGATTGTTCTCCCAGCTGATGAATTTATAGTGTCGAGTAAACAAATTTTCCTAATCTTTCTGTTCAAGCGCCATCTAC” here?
A: The binding signal was 1.2 RPM ratio (pull-down/input).

Q: Which binding signal does the source give for “GATGATTGTTCTCCCAGCTGATGAATTTCATTACTCGAGTAAACAAATTTTCCTAATCTTTCTGTTCAAGCGCCATCTAC” here?
A: The binding signal was 0.95 RPM ratio (pull-down/input).

Q: “GATGATTGTTCTCCCAGCTGATGAATTGCTCACGTCGAGTAAACAAATTTTCCTAATCTTTCTGTTCAAGCGCCATCTAC” was tested. Which binding signal did it give?
A: The binding signal was 0.992 RPM ratio (pull-down/input).

Q: Which binding signal does the source give for “GATGATTGTTCTCCCAGCTGATGAATTCGTCCGATCGAGTAAACAAATTTTCCTAATCTTTCTGTTCAAGCGCCATCTAC” here?
A: The binding signal was 0.822 RPM ratio (pull-down/input).

Q: How did the binding signal turn out when “GATGATTGTTCTCCCAGCTGATGAATTAATTACCTCGAGTAAACAAATTTTCCTAATCTTTCTGTTCAAGCGCCATCTAC” was run?
A: Its binding signal is 1.1 RPM ratio (pull-down/input).

Q: How did the binding signal turn out when “GATGATTGTTCTCCCAGCTGATGAATTACATGAGTCGAGTAAACAAATTTTCCTAATCTTTCTGTTCAAGCGCCATCTAC” was run?
A: Its binding signal is 1.15 RPM ratio (pull-down/input).

Q: “GATGATTGTTCTCCCAGCTGATGAATTTTTTGGTTCGAGTAAACAAATTTTCCTAATCTTTCTGTTCAAGCGCCATCTAC” was tested. Which binding signal did it give?
A: The binding signal was 1.01 RPM ratio (pull-down/input).

Q: With “GATGATTGTTCTCCCAGCTGATGAATTCTAATCATCGAGTAAACAAATTTTCCTAATCTTTCTGTTCAAGCGCCATCTAC” as the sequence, how does the binding signal read?
A: Its binding signal is 1.1 RPM ratio (pull-down/input).

Q: With “GATGATTGTTCTCCCAGCTGATGAATTTTAGACTTCGAGTAAACAAATTTTCCTAATCTTTCTGTTCAAGCGCCATCTAC” as the sequence, how does the binding signal read?
A: The binding signal was 0.835 RPM ratio (pull-down/input).

Q: For “GATGATTGTTCTCCCAGCTGATGAATTTTCTCCTTCGAGTAAACAAATTTTCCTAATCTTTCTGTTCAAGCGCCATCTAC”, which binding signal is on record?
A: The binding signal was 0.846 RPM ratio (pull-down/input).

Q: Which binding signal does the source give for “GATGATTGTTCTCCCAGCTGATGAATTCTCCCTCTCGAGTAAACAAATTTTCCTAATCTTTCTGTTCAAGCGCCATCTAC” here?
A: The binding signal was 0.869 RPM ratio (pull-down/input).

Q: Which binding signal does the source give for “GATGATTGTTCTCCCAGCTGATGAATTTTAAGAGTCGAGTAAACAAATTTTCCTAATCTTTCTGTTCAAGCGCCATCTAC” here?
A: The binding signal was 0.835 RPM ratio (pull-down/input).

Q: “GATGATTGTTCTCCCAGCTGATGAATTGGCGTCCTCGAGTAAACAAATTTTCCTAATCTTTCTGTTCAAGCGCCATCTAC” was tested. Which binding signal did it give?
A: The binding signal was 0.871 RPM ratio (pull-down/input).

Q: How did the binding signal turn out when “GATGATTGTTCTCCCAGCTGATGAATTATCCAACTCGAGTAAACAAATTTTCCTAATCTTTCTGTTCAAGCGCCATCTAC” was run?
A: Its binding signal is 0.939 RPM ratio (pull-down/input).

Q: For “GATGATTGTTCTCCCAGCTGATGAATTAGCCATATCGAGTAAACAAATTTTCCTAATCTTTCTGTTCAAGCGCCATCTAC”, which binding signal is on record?
A: The binding signal was 0.942 RPM ratio (pull-down/input).

Q: For “GATGATTGTTCTCCCAGCTGATGAATTTAGTACGTCGAGTAAACAAATTTTCCTAATCTTTCTGTTCAAGCGCCATCTAC”, which binding signal is on record?
A: The binding signal was 1.08 RPM ratio (pull-down/input).

Q: “GATGATTGTTCTCCCAGCTGATGAATTCTAACATTCGAGTAAACAAATTTTCCTAATCTTTCTGTTCAAGCGCCATCTAC” was tested. Which binding signal did it give?
A: Its binding signal is 1.09 RPM ratio (pull-down/input).

Q: For “GATGATTGTTCTCCCAGCTGATGAATTCTACGTTTCGAGTAAACAAATTTTCCTAATCTTTCTGTTCAAGCGCCATCTAC”, which binding signal is on record?
A: Its binding signal is 0.924 RPM ratio (pull-down/input).

Q: Which binding signal does the source give for “GATGATTGTTCTCCCAGCTGATGAATTTTCACGGTCGAGTAAACAAATTTTCCTAATCTTTCTGTTCAAGCGCCATCTAC” here?
A: Its binding signal is 0.822 RPM ratio (pull-down/input).

Q: “GATGATTGTTCTCCCAGCTGATGAATTCAAGCTGTCGAGTAAACAAATTTTCCTAATCTTTCTGTTCAAGCGCCATCTAC” was tested. Which binding signal did it give?
A: Its binding signal is 0.905 RPM ratio (pull-down/input).

Q: How did the binding signal turn out when “GATGATTGTTCTCCCAGCTGATGAATTATCCTTGTCGAGTAAACAAATTTTCCTAATCTTTCTGTTCAAGCGCCATCTAC” was run?
A: The binding signal was 0.862 RPM ratio (pull-down/input).

Q: Which binding signal does the source give for “GATGATTGTTCTCCCAGCTGATGAATTATAATTGTCGAGTAAACAAATTTTCCTAATCTTTCTGTTCAAGCGCCATCTAC” here?
A: The binding signal was 1.35 RPM ratio (pull-down/input).

Q: With “GATGATTGTTCTCCCAGCTGATGAATTGTAGGCTTCGAGTAAACAAATTTTCCTAATCTTTCTGTTCAAGCGCCATCTAC” as the sequence, how does the binding signal read?
A: The binding signal was 0.939 RPM ratio (pull-down/input).

Q: “GATGATTGTTCTCCCAGCTGATGAATTGCGACTGTCGAGTAAACAAATTTTCCTAATCTTTCTGTTCAAGCGCCATCTAC” was tested. Which binding signal did it give?
A: Its binding signal is 1.02 RPM ratio (pull-down/input).

Q: For “GATGATTGTTCTCCCAGCTGATGAATTACCATCGTCGAGTAAACAAATTTTCCTAATCTTTCTGTTCAAGCGCCATCTAC”, which binding signal is on record?
A: Its binding signal is 0.977 RPM ratio (pull-down/input).

Q: With “GATGATTGTTCTCCCAGCTGATGAATTAATGAGGTCGAGTAAACAAATTTTCCTAATCTTTCTGTTCAAGCGCCATCTAC” as the sequence, how does the binding signal read?
A: Its binding signal is 0.83 RPM ratio (pull-down/input).

Q: With “GATGATTGTTCTCCCAGCTGATGAATTCTGGTTCTCGAGTAAACAAATTTTCCTAATCTTTCTGTTCAAGCGCCATCTAC” as the sequence, how does the binding signal read?
A: The binding signal was 0.806 RPM ratio (pull-down/input).

Q: Which binding signal does the source give for “GATGATTGTTCTCCCAGCTGATGAATTACGGGTTTCGAGTAAACAAATTTTCCTAATCTTTCTGTTCAAGCGCCATCTAC” here?
A: Its binding signal is 1.06 RPM ratio (pull-down/input).

Q: For “GATGATTGTTCTCCCAGCTGATGAATTCTTTTACTCGAGTAAACAAATTTTCCTAATCTTTCTGTTCAAGCGCCATCTAC”, which binding signal is on record?
A: The binding signal was 0.857 RPM ratio (pull-down/input).

Q: For “GATGATTGTTCTCCCAGCTGATGAATTGAATAGTTCGAGTAAACAAATTTTCCTAATCTTTCTGTTCAAGCGCCATCTAC”, which binding signal is on record?
A: Its binding signal is 0.895 RPM ratio (pull-down/input).

Q: “GATGATTGTTCTCCCAGCTGATGAATTAAAATCTTCGAGTAAACAAATTTTCCTAATCTTTCTGTTCAAGCGCCATCTAC” was tested. Which binding signal did it give?
A: The binding signal was 0.925 RPM ratio (pull-down/input).

Q: How did the binding signal turn out when “GATGATTGTTCTCCCAGCTGATGAATTCACCCTATCGAGTAAACAAATTTTCCTAATCTTTCTGTTCAAGCGCCATCTAC” was run?
A: Its binding signal is 0.854 RPM ratio (pull-down/input).

Q: How did the binding signal turn out when “GATGATTGTTCTCCCAGCTGATGAATTAGGATACTCGAGTAAACAAATTTTCCTAATCTTTCTGTTCAAGCGCCATCTAC” was run?
A: The binding signal was 0.974 RPM ratio (pull-down/input).

Q: For “GATGATTGTTCTCCCAGCTGATGAATTGCAACTCTCGAGTAAACAAATTTTCCTAATCTTTCTGTTCAAGCGCCATCTAC”, which binding signal is on record?
A: Its binding signal is 1.51 RPM ratio (pull-down/input).

Q: How did the binding signal turn out when “GATGATTGTTCTCCCAGCTGATGAATTTTTTCAGTCGAGTAAACAAATTTTCCTAATCTTTCTGTTCAAGCGCCATCTAC” was run?
A: The binding signal was 0.939 RPM ratio (pull-down/input).

Q: With “GATGATTGTTCTCCCAGCTGATGAATTCGCTCTTTCGAGTAAACAAATTTTCCTAATCTTTCTGTTCAAGCGCCATCTAC” as the sequence, how does the binding signal read?
A: The binding signal was 0.909 RPM ratio (pull-down/input).

Q: For “GATGATTGTTCTCCCAGCTGATGAATTACATACCTCGAGTAAACAAATTTTCCTAATCTTTCTGTTCAAGCGCCATCTAC”, which binding signal is on record?
A: Its binding signal is 1.11 RPM ratio (pull-down/input).

Q: For “GATGATTGTTCTCCCAGCTGATGAATTCCGTAATTCGAGTAAACAAATTTTCCTAATCTTTCTGTTCAAGCGCCATCTAC”, which binding signal is on record?
A: The binding signal was 1.02 RPM ratio (pull-down/input).
